Results published in PubChem BioAssay AID1508624 (National Center for Advancing Translational Sciences (NCATS), 2021).
The campaign covered roughly 48,000 compounds. About 120 (0.25%) were called active. About 4% were inconclusive and are not listed. Calls come from the whole dose curve; as a rule, active = well fitted activation curve with a large enough effect; inconclusive = small, poorly fitted or top-dose-only effect, or another doubt; inactive = no such curve, though single readings can be large or run the other way. The list shows a part of the results.

Test: Primary qHTS for Identification of Small Molecule Activators of Huntingtin-Antisense Promoter Activity; note: nearly all actives have a fitted effect of over 55% in size
Details: HEK293 HTT-AS promoter firefly luciferase reporter, 24 h; series mostly up to 57.5 µM; activity change, positive = activation: at the top concentration
Method in brief: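 HEK293 Fluc reporter, 2,500 cells/well, 24 h pre-culture; cpds up to 57.5 uM final, 24 h 37 degrees C; Dual-Glo, 10 min RT; normalized vehicle = 0%, zero RLU = -100%.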

Row | SMILES | activity change, positive = activation
1 | Cc1c(C(=O)N2CCN(c3ccccc3)CC2)sc2nc3n(c(=O)c12)CCC3 | inactive: -11.7%
2 | COc1ccc(CCNC(=O)c2ccc3c(c2)ncn3-c2ccc(C)cc2C)cc1OC | inactive: -19%
3 | CCc1ccc(S(=O)(=O)c2nnn3c2nc(NC(C)C)c2sccc23)cc1 | inactive: -12.6%
4 | COc1ccccc1CNC(=O)CCCn1c(=O)c2ccccc2n(CC(=O)Nc2c(C)cc(C)cc2C)c1=O | inactive: -7.62%
5 | COCCCNC(=O)c1ccc2c(c1)N(Cc1ccccc1)C(=O)c1ccccc1S2 | inactive: -28.6%
6 | O=C(CSc1nc(=O)n(CCN2CCOCC2)c2c1CCC2)Nc1ccccc1 | inactive: -11%
7 | CCOC(=O)c1sc(NC(=O)C2c3ccccc3Oc3ccccc32)c(C(=O)OCC)c1C | inactive: -33%
8 | CCOC(=O)c1cccnc1 | inactive: -3.76%
9 | CCn1cc(C(=O)NCc2ccccc2Cl)c(=O)c2cc(S(=O)(=O)N3CCc4ccccc4C3)ccc21 | inactive: -17.6%
10 | COc1ccc(C(=O)Nc2nnc(S(=O)(=O)N(CC(C)C)c3ccc(C)cc3)s2)cc1OC | inactive: -19.1%
11 | CN(C)CCOC(=O)COc1ccc(Cl)cc1 | inactive: -0.926%
12 | COC(=O)c1cccnc1-n1c(=O)c2cccnc2n(CC(=O)Nc2ccc(C)cc2C)c1=O | inactive: -0.685%
13 | O=C(Nc1cc(C(F)(F)F)ccc1Cl)c1cc(-c2ccc3c(c2)OCCO3)on1 | inactive: 4.46%
14 | O=C(Nc1ccc(S(=O)(=O)Nc2ncccn2)cc1)c1ccccc1Cl | inactive: -6.68%
15 | Cc1ccc2c(c1)N(C(=O)CCC(=O)NCc1ccccc1Cl)CC(C)O2 (stereo not given) | inactive: -17.5%
16 | CC(NC(=O)Cn1c(=O)oc2cc(S(=O)(=O)NCc3ccccc3)ccc21)c1ccccc1 (stereo not given) | inactive: -21.8%
17 | Cc1ccccc1Nc1nc(-c2cccc(Cl)c2)c2c(n1)-c1ccccc1OC2 | inactive: -11.7%
18 | CC(=O)c1ccc(NC(=O)COc2ccccc2-c2nc(-c3cccc(C)c3)no2)cc1 | inactive: -2.36%
19 | Brc1c(NC2=NCCN2)ccc2nccnc12 | inactive: -13%
20 | COc1ccc(Nc2nc(N)c3cc(OC)c(OC)cc3n2)cc1 | inactive: -3.78%
21 | CC1CCc2c(sc(NC(=O)C3c4ccccc4Oc4ccccc43)c2C(=O)OC(C)C)C1 (stereo not given) | inactive: -16.3%
22 | CCOC(=O)c1scc(-c2ccccc2)c1S(=O)(=O)Nc1cc(Cl)c(OC)cc1OC | inactive: -36%
23 | COC(=O)c1ccc(CSc2nc3c([nH]c4ccccc43)c(=O)n2-c2ccc(OC)cc2)o1 | inactive: -27.3%
24 | COc1cccc(CNC(=O)c2nn(-c3ccc(C)cc3)c(=O)c3c2c2ccccc2n3C)c1 | inactive: -32.4%

Row | SMILES | activity change, positive = activation
25 | CCOC(=O)c1oc2ccc(S(=O)(=O)n3nc(-c4ccc(Br)cc4)cc3N)cc2c1C | inactive: -36.7%
26 | COc1ccc(CNC(=O)c2c3c(nc4ccccc24)C(=O)N(C2CCCCC2)C3)cc1 | inactive: -13.6%
27 | O=C(Cc1ccccc1)NCCc1csc2nc(-c3ccc(Cl)cc3)nn12 | inactive: -35.6%
28 | COc1ccccc1CNS(=O)(=O)c1ccc2c(c1)NC(=O)CC(=O)N2 | inactive: -5.48%
29 | Cc1ccc(-n2nc(C)c3c(C(=O)NCc4ccccc4)cc(C4CC4)nc32)cc1 | inactive: -24%
30 | COc1ccccc1Nc1nn2c(=O)c3ccc(C(=O)N4CCCC(C)C4)cc3nc2s1 (stereo not given) | inactive: -36.5%
31 | Cc1ccc(S(=O)(=O)NCc2nc(-c3cccc(C)c3)no2)cc1 | inactive: -30.5%
32 | COc1ccc(C2CC(=O)N(Cc3cccc(F)c3)c3ccccc3S2)cc1 (stereo not given) | inactive: -53.9%
33 | CCCCNC(=O)CCCn1c(=O)c2ccccc2n(CC(=O)Nc2ccccc2OCC)c1=O | inactive: -12.6%
34 | CCCc1cnc2c(c1SCC(=O)Nc1ccc(C)c(Cl)c1)c(=O)n(C)c(=O)n2C | inactive: -29.5%
35 | COc1cc(/C=C(\C#N)c2nc3ccccc3[nH]2)ccc1OCc1cccc(C(F)(F)F)c1 | inactive: -53.9%
36 | CCOc1ccccc1NC(=O)c1ccc(F)c(S(=O)(=O)NCc2ccc3c(c2)OCO3)c1 | inactive: -20.6%
37 | CCOc1ccccc1NC(=O)N1CCc2c(sc(C)c2CC)C1c1ccccc1 (stereo not given) | inactive: 0%
38 | COc1ccc(CNc2ncnc3onc(-c4ccc(F)cc4)c23)cc1 | inactive: -33.9%
39 | CN(C(=O)Cn1cc(S(=O)(=O)Cc2ccccc2Cl)c2ccccc21)c1ccccc1 | inactive: -26.5%
40 | COc1ccc(-c2nn3c(-c4ccccc4C)nnc3c3ccccc23)cc1 | inactive: -49.4%
41 | Cc1ccc(Cl)cc1N1CCN(S(=O)(=O)c2ccc3c(c2)CC(C)N3C(=O)C2CCC2)CC1 (stereo not given) | inactive: -11.3% [at 11.5 µM, percent change from vehicle, -100% = no light]
42 | CCOCCCNc1ncnc2onc(C)c12 | inactive: -8.27%
43 | CC(=O)c1ccc(NC(=O)c2sc(-n3nc(C)c(Cc4ccccc4)c3C)nc2C)cc1 | inactive: 0.211%
44 | Cc1cccc(NC(=O)Nc2nnc(N(C)Cc3ccccc3)s2)c1 | inactive: -21.3%
45 | Cn1c(=O)c2c(ncn2CC(=O)Nc2cccc(Cl)c2Cl)n(C)c1=O | inactive: -8.26%
46 | Cc1ccccc1C(=O)NC1(C(F)(F)F)C(=O)Nc2c1c(=O)[nH]c(=O)n2-c1ccc(F)cc1 (stereo not given) | inactive: 2.31%
47 | Cc1noc(/C=C/c2cccs2)c1S(=O)(=O)N1CCC(C(=O)NCc2ccccc2Cl)CC1 | inactive: -14.8%
48 | CCN(Cc1ccccc1)Cc1c(O)ccc2c(=O)c(-c3ccc(Cl)cc3Cl)coc12 | inactive: -22.3%

Row | SMILES | activity change, positive = activation
49 | CCOC(=O)c1cccc(NC(=O)C2Cc3ccccc3N2C(=O)c2ccccc2)c1 (stereo not given) | inactive: -7.55%
50 | O=C(OCc1ccccc1)c1ccccc1 | inactive: 14.8%
51 | CCOc1ccc(C(=O)NC2CC(=O)N(c3ccc(C)cc3)C2)cc1OCC (stereo not given) | inactive: -5.31%
52 | Cc1ccc(-c2nc(NC(=O)CSc3nc(C)nc4sc5c(c34)CCCC5)ns2)cc1 | inactive: -7.15%
53 | CC1CCN(S(=O)(=O)c2ccc3c(ccn3CCC(=O)NCc3ccccc3F)c2)CC1 | inactive: -3.48%
54 | Cc1sc2c(c1C)c(=O)n(Cc1ccccc1)c(=O)n2Cc1ccc(F)cc1 | inactive: 5.29%
55 | COc1ccc(NC(=O)c2c(-c3ccccc3)c(-c3ccccc3)nn(C)c2=O)cc1OC | inactive: 3.71%
56 | Cc1ccc(C)c(Cn2c(=O)n(C(C)C)c(=O)c3oc4ccccc4c32)c1 | inactive: -5.8%
57 | Cc1ccccc1CNC(=O)CN1C(=O)C2CCCCN2c2ccc(C(=O)N3CCCC3)cc21 (stereo not given) | inactive: -13.9%
58 | Cc1ccccc1NC(=O)CCS(=O)(=O)c1cc(Br)cc2c1N(C(=O)C1CC1)CC2 | inactive: -9.27%
59 | CCc1nn(CC(=O)N2CCCCC2)c(=O)c2cc3sc(C)cc3n12 | inactive: 0.835%
60 | O=C(Nc1ccc2c(c1)N(C1CCCC1)C(=O)c1ccccc1S2)c1ccccc1F | inactive: -35.2%
61 | Cc1ccccc1OCC(=O)Nc1cccc(C(=O)OCc2cc(=O)n3c(C)csc3n2)c1 | inactive: -35.8%
62 | Cc1ccc(S(=O)(=O)Cc2ccc(C(=O)N3CCN(c4cccc(Cl)c4)CC3)o2)cc1 | inactive: -44.5%
63 | O=C(Cn1c(=O)n(-c2ccc(Cl)cc2)c(=O)c2sc3ccccc3c21)NC1CCCC1 | inactive: -5.39%
64 | COC(=O)c1ccccc1NC(=O)c1cc2cc(C)ccc2n1C | inactive: -25.4%
65 | CCOc1ccc(-c2c(C)nn3c(C)c(C(=O)NCCc4ccc(Cl)cc4)cnc23)cc1OCC | inactive: -36.9%
66 | c1ccc(CN2CCN(c3ncnc4c3cnn4-c3ccccc3)CC2)cc1 | inactive: 12.9%
67 | CCc1nc2cccnc2n1-c1ccc(CC(=O)Nc2cccc(C)c2C)cc1 | inactive: -22%
68 | CCC1=Nc2cc(C(=O)NCCN(CC)CC)ccc2Sc2ccccc21 | inactive: -7.96%
69 | Cc1ccc(NC(=O)c2cc(S(=O)(=O)N3CCc4ccccc43)cn2C)c(Cl)c1 | inactive: -37.1%
70 | CCc1cccc(NC(=O)C2CCC(CNS(=O)(=O)c3ccc(Br)s3)CC2)c1 (stereo not given) | inactive: -28%
71 | CCc1ccc(-n2nc(CO)c(C(=O)NCCCc3ccccc3)n2)cc1 | inactive: -5.24%
72 | Cc1ccc(C)c(S(=O)(=O)c2nnn3c2nc(NC2CCCCC2)c2sccc23)c1 | inactive: -48.5%

Row | SMILES | activity change, positive = activation
73 | Cc1ccccc1Cn1c2ccccc2c2cnn(CC(=O)NCc3ccccn3)c(=O)c21 | inactive: -14.9%
74 | Cc1ccc(C)c(N2CCN(C(=O)NCc3noc4ccc(C)cc34)CC2)c1 | inactive: -30.6%
75 | O=C(NCCc1ccccc1)C1CCC(CNS(=O)(=O)c2ccc(Cl)cc2)CC1 (stereo not given) | inactive: 21%
76 | COc1ccc(-c2cc(-c3ccccc3)nc3c2COc2ccc(F)cc2-3)cc1 | inactive: -9.34%
77 | CCN(CC)C(=O)Cn1c(=O)cc(C)c2c(C)nn(-c3ccc(C)cc3)c21 | inactive: -9.94%
78 | Cc1ccc(CSc2ncc(Cl)c(C(=O)NCc3ccccc3)n2)cc1 | inactive: -6.8%
79 | CC(C)c1nn2c(=O)cc(COC(=O)c3ccc(NC(=O)C4CCCCC4)cc3)nc2s1 | inactive: -1.66%
80 | COc1ccc2[nH]c3c(c2c1)CCN(C(=O)c1cccc(Cl)c1)C3c1ccc(F)cc1 (stereo not given) | inactive: -36.7%
81 | Cc1ccc(S(=O)(=O)N2CCCc3cc(NS(=O)(=O)c4cc(C)ccc4C)ccc32)cc1 | inactive: -26.5%
82 | COc1ccc(-c2cn3cccnc3n2)cc1NC(=O)Nc1ccc(Cl)cc1 | inactive: 24.9%
83 | Cc1ccc(C(=O)c2oc3ccccc3c2NC(=O)COc2ccc(C(C)C)cc2)cc1 | inactive: -8.32%
84 | O=C(Nc1ccc(S(=O)(=O)Nc2ncccn2)cc1)c1cc(=O)c2ccccc2o1 | inactive: 2.4%
85 | CCOc1ccc(NC(=O)c2ccc3c(c2)CCN3S(=O)(=O)CC)cc1 | inactive: -29.8%
86 | CCc1ccc(NC(=O)CN2C(=O)C(c3ccc(C)cc3)=NC23CCCCC3)cc1 | inactive: -27.4%
87 | Cc1cccc(Cn2cccc2CNS(=O)(=O)c2ccccc2F)c1 | inactive: -12.2%
88 | CCc1ccc(CNC(=O)Cn2nc(C)n3c(cc4cc(C)ccc43)c2=O)cc1 | inactive: -6.06%
89 | COc1ccc(NC(=O)C(Cc2ccccc2)NS(=O)(=O)c2ccc3c(c2)CCC(=O)N3)c(OC)c1 (stereo not given) | inactive: -15.6%
90 | CCOc1ccccc1CNC(=O)C1CCN(c2nnc(-n3c(C)ccc3C)s2)CC1 | inactive: 6.68%
91 | CCCCOc1ccc(C2=NC(c3ccncc3)=Nc3ccc(OCC)cc3N2)cc1 | inactive: 1.2%
92 | O=C(Cn1c(=O)n(CC2CCC(C(=O)NCCc3ccccc3)CC2)c(=O)c2ccccc21)Nc1ccccc1 (stereo not given) | inactive: -21.7%
93 | COc1ccc2sc(N(Cc3cccnc3)C(=O)C3CCCCC3)nc2c1 | inactive: -22.5%
94 | Cc1nn(-c2ccc(F)cc2)c(-n2cccc2)c1C(=O)NCCc1ccc(Cl)cc1 | inactive: -39.7%
95 | Cc1ccc2c(Cl)cc(Cl)c(O)c2n1 | inactive: 2.01%
